What was measured:
[1] = biological target: the molecule itself; test: ThT fluorescence + negative-stain TEM; self-assembly into fibers; 10 μM protein in 10 mM Hepes pH 7.6, 100 mM KCl, 1 M urea, 0.1 mM CaCl2, 1 mM MgCl2, 5% glycerol, 1 mM DTT, 25 °C, TEM after 7 days
[2] = biological target: the molecule itself; test: ThT fluorescence + negative-stain TEM + X-ray fibre diffraction; self-assembly into fibers; 10 μM protein in PBS pH 7.4, 1 M urea, 1 mM EDTA, 5% glycerol, 1 mM DTT, 25 °C or room temperature

B1: Orb2A prion-like domain ([…]) F8Y (domain or fragment)
chain: not shown
notes: Made with the Quikchange II site-directed mutagenesis kit; also called F8Y variant; F8Y PLD; source: E. coli Bl21-Gold(DE3), purified under denaturing conditions (HisTrap-HP, 8 M urea)
binding result [1]: binds

B2: full-length Orb2A (natural protein, Drosophila)
chain: [about 80 residues cut from this listing]PYNGSQAGCSSGGISPIPPQMGVSPKYRRSISFPIKGNSPTAIYGNMHMDGMGSGHMNIPTLSIGNGGGGGSTGMVSAGATGGGDAPYLGNSYGNMMTSNGQMHHGGGLDNSLCDYMRNMSLGGNGGGDGSNSMSLMQDRMRVMGGPKHLSEADAMAIAASGNDPSVYLNALKMGSPSRLSPHSPHSPIQGGNGGNVGDGTARFSRKVFVGGLPPDIDEDEITTSFRRFGPLVVDWPHKAESKSYFPPKGYAFLLFQDESSVQQLIDSCITDEDKLYLCVSSPTIKDKAVQIRPWRLADADYVLDATMSLDPRKTVFVGGVPRPLKAFELAMIMDRLYGGVCYAGIDTDPELKYPKGAGRVAFSNQQSYIAAISARFVQLQHGDIDKRVEVKPYVLDDQMCDECEGQRCGGKFAPFFCANVTCLQYYCEHCWAVIHSRPGREYHKPLVKEGADRPRAVPFRWC
notes: Plasmid (pET-28) was a gift from Dr Ansgar Siemer (USC); also called Orb2A-FL; source: E. coli Bl21-Gold(DE3), purified under denaturing conditions (HisTrap-HP, 8 M urea)
binding result [2]: binds

B3: Orb2A prion-like domain ([…]) (domain or fragment)
chain: not shown
notes: Made by overlap-extension PCR from the Orb2A-FL plasmid; also called Orb2A-PLD; WT Orb2A-PLD; source: E. coli Bl21-Gold(DE3), purified under denaturing conditions (HisTrap-HP, 8 M urea)
binding result [2]: binds

B4: Orb2A prion-like domain ([…]) F5Y (domain or fragment)
chain: not shown
notes: Made with the Quikchange II site-directed mutagenesis kit; also called F5Y variant; F5Y PLD; source: E. coli Bl21-Gold(DE3), purified under denaturing conditions (HisTrap-HP, 8 M urea)
binding result [1]: binds

Source: publication PMC9556795, “Micro-electron diffraction structure of the aggregation-driving N terminus of Drosophila neuronal protein Orb2A reveals amyloid-like β-sheets” (The Journal of Biological Chemistry, 2022)
